From paper PMC8584774, “Assessment of the Contribution of a Thermodynamic and Mechanical Destabilization of Myosin-Binding Protein C Domain C2 to the Pathomechanism of Hypertrophic Cardiomyopathy-Causing Double Mutation MYBPC3^Δ25bp/D389V” (International Journal of Molecular Sciences, 2021)

Target: T1, β-cardiac myosin (β-CM), synthetic thick filaments (Sus scrofa, UniProt P79293 1-1935; Q5EFJ2 1-150; Q8MHY0 1-166)
T1 construct: β-cardiac myosin, Sus scrofa, UniProt P79293 (first of the three entries printed for β-CM); β-cardiac myosin, Sus scrofa, UniProt Q5EFJ2 (second entry printed for β-CM); β-cardiac myosin, Sus scrofa, UniProt Q8MHY0 (third entry printed for β-CM); full-length β-CM assembled into synthetic thick filaments (20 mM HEPES pH 7.4, 75 mM NaCl, 2 mM MgCl2, 0.5 mM EDTA, 0.5 mM DTT, 30 min on ice); also called …
Experiment: co-sedimentation; high-speed cosedimentation; 2.5 µM β-CM as synthetic thick filaments with 0–30 µM C0–C2 or C2; 20 mM HEPES pH 7.4, 75 mM NaCl, 2 mM MgCl2, 0.5 mM EDTA, 0.5 mM DTT; 30 min at room temperature; pellet fractions by SDS-PAGE against a protein standard range; quadratic fit
Details: both partners purified

T1 sequence (P79293 whole entry, chain 1 of 3): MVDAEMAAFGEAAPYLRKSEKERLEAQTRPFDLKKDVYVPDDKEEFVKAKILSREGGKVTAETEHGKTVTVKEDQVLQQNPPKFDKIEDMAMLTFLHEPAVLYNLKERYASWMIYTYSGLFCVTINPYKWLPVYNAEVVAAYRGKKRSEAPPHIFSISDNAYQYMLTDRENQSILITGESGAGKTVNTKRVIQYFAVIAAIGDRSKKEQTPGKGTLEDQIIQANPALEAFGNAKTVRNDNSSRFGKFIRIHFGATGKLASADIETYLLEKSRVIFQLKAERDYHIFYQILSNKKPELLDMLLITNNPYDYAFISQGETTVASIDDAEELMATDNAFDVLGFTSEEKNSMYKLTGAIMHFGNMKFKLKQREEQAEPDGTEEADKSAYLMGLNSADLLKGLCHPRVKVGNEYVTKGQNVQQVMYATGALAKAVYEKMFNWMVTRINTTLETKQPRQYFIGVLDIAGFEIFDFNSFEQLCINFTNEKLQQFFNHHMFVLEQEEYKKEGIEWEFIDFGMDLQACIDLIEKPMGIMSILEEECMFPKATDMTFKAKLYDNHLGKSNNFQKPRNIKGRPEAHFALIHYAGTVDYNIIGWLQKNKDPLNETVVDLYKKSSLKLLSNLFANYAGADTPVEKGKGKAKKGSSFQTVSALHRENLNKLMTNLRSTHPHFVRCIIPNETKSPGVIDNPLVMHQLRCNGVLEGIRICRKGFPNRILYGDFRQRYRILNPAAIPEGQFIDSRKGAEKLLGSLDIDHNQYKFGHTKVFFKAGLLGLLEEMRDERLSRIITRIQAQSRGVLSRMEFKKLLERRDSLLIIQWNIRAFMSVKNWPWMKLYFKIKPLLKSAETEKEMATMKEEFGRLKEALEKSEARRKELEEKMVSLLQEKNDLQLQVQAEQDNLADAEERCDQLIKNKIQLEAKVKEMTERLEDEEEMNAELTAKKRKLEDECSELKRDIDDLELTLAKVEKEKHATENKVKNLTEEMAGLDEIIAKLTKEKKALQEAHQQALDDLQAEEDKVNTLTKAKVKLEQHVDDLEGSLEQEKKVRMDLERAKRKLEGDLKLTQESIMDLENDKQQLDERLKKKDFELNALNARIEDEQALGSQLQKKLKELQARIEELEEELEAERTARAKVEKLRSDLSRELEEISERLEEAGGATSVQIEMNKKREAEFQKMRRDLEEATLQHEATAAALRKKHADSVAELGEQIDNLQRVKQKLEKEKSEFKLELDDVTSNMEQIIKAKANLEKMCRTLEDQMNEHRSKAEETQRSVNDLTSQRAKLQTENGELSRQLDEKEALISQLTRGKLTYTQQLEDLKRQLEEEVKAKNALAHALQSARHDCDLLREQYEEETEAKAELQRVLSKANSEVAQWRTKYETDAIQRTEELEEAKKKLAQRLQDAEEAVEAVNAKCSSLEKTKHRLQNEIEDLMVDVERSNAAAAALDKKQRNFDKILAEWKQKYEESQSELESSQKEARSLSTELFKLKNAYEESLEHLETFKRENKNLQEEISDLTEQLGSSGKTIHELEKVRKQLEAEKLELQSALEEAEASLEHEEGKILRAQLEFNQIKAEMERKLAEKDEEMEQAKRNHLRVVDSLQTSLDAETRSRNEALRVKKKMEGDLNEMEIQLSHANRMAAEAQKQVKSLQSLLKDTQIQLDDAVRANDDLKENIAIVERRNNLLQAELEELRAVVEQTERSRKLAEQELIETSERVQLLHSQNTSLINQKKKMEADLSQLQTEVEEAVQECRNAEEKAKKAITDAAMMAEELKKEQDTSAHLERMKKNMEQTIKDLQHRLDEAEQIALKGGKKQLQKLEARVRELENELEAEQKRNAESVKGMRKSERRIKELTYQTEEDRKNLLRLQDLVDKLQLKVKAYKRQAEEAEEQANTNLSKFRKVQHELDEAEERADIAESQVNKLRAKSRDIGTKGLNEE
T1 sequence (chain, as listed by the source, chain 2 of 3): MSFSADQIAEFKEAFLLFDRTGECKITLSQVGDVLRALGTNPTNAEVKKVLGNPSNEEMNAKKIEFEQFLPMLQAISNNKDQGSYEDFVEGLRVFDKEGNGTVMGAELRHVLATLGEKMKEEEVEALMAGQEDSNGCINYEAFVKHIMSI
T1 sequence (chain, as listed by the source, chain 3 of 3): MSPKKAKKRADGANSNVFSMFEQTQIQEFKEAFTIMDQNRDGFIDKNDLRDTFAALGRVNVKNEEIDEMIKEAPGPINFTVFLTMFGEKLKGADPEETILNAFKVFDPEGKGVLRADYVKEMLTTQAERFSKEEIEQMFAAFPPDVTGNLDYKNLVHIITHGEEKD

B1: MyBPC C0–C2 D389V (domain or fragment)
chain: not shown
notes: D389V made by site-directed whole plasmid mutagenesis; the variant occurs in human carriers; also called construct C0–C2 D389V; source: E. coli Rosetta(DE3)pLysS, purified (Ni-NTA, HiTrap SP cation exchange)
Kd: 14.8 ± 7.7 µM
